PubChem BioAssay AID1030 (National Center for Advancing Translational Sciences (NCATS), 2008)
Among all 220,000 compounds or so, about 16,000 (7.3%) were called active. Inconclusive means that the source gave no clear call. Such entries were picked first, then a sample of the others. Calls come from the whole dose curve; as a rule, active = well fitted inhibition curve with a large enough effect (not every such curve was filed as active); inconclusive = small, poorly fitted or top-dose-only effect, or another doubt; inactive = no such curve, though single readings can be large or run the other way. Potencies of inconclusive entries are left out as doubtful fits. The source holds several records for some structures; these can differ, active in one and inactive in another.

These compounds were tested against Aldehyde dehydrogenase 1A1 (Homo sapiens) (UniProt P00352) (assay: qHTS Assay for Inhibitors of Aldehyde Dehydrogenase 1 (ALDH1A1)). Conditions: Purified ALDH1A1, NADH fluorescence, propionaldehyde substrate; series mostly up to 75.3 µM.
Chain of UniProt P00352 (P00352 whole entry, looked up): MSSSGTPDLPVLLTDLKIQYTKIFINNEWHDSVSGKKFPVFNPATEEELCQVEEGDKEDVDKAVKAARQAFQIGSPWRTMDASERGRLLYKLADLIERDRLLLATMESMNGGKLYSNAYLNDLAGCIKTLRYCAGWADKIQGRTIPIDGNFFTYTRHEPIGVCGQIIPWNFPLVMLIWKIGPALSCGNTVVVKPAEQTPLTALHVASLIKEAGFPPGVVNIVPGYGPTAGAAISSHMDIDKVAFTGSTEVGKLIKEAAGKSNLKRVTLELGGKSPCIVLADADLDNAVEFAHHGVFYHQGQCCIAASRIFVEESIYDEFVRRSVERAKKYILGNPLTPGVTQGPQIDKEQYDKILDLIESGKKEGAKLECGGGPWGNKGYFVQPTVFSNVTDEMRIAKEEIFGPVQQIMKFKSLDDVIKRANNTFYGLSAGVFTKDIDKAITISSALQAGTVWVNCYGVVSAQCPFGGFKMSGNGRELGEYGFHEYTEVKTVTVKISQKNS
Potency is the fitted concentration of half-maximal effect; tags give direction and shape of the fitted curve.

SMILES	Potency
Cc1ccsc1C(=O)N1CCCC(C(=O)c2cc(F)ccc2F)C1 (stereo not drawn)	inactive
O=C(OCn1ncc(Br)c(Br)c1=O)c1c(F)cccc1F	active: 0.501 µM
O=C(COC(=O)CCCNC(=O)c1ccc(Cl)cc1)Nc1cc(Cl)ccc1Cl	inactive
COc1cccc(Cn2c(=O)c(-c3ccccc3)nc3cncnc32)c1	inconclusive [inhibitor, single point]
C/C(=N\Nc1c([N+](=O)[O-])c(C)nn1C)c1ccc(F)cc1F	inactive
Cc1cc(N2CCCCC2)nc(SCC(=O)c2ccccc2)n1	inconclusive [inhibitor, partial curve]
O=C(c1cccs1)N1CCN(C(=O)c2ccco2)c2ccccc2C1	inconclusive [inhibitor, partial curve]
Cc1ccc(NC(=O)c2ccc3ccccc3n2)cc1S(=O)(=O)N1CCOCC1	inconclusive [inhibitor, single point]
O=C(N/N=C/c1c(O)n(Cc2ccccc2)c(=O)c2ccccc12)c1cccnc1	active: 10 µM
O=C1CC(N2CCC(c3nc4ccccc4o3)CC2)C(=O)N1Cc1cccs1 (stereo not drawn)	inconclusive [inhibitor, partial curve]
Cc1ccccc1-c1ccc(Nc2ccc(N3CCOCC3)cc2)nn1	active: 8.91 µM
COC(CNC(=O)c1c[nH]c2ccc(S(=O)(=O)N3CCC4(CC3)OCCO4)cc2c1=O)OC	inconclusive [inhibitor, single point]
CCN(C(=O)CN1C(=S)NC(C)(C)CC1C)c1ccc(C)c(C)c1 (stereo not drawn)	active: 28.2 µM
O=C(CNC(=O)c1ccccc1Cl)N/N=C/c1ccc([N+](=O)[O-])s1	inactive
O=C(Nc1sc2c(c1C(=O)NCc1cccnc1)CCCC2)c1ccco1	inconclusive [inhibitor, partial curve]
O=C(CSc1nnc(-c2ccncc2)n1-c1ccc(F)cc1)NNC(=O)c1cccc(O)c1	inactive
COc1ccc(-n2c(Cc3cccn3C)nnc2SCC(=O)Nc2ccc(C)cc2)cc1	inconclusive [inhibitor, partial curve]
COc1ccc(CC(=O)NCc2n[nH]c(=S)n2C)cc1	inconclusive [inhibitor, partial curve]
COc1ccc(/C=C/C(=O)/C=C/c2ccc(OC)cc2OC)c(OC)c1	inconclusive [inhibitor, single point]
O=C(O)c1cc(Cl)c(Cl)cc1C(=O)Nc1cccc2cccnc12	inactive
CC(C)(C)CC(=O)Nc1nnc(-c2cccs2)s1	inconclusive [inhibitor, full curve]
CCn1cc(C(=O)NC2CCCCC2)c(=O)c2cc(S(=O)(=O)N(C)C)ccc21	inconclusive [inhibitor, full curve]
Cc1ccc(Nc2ccc(C(N)=O)cc2[N+](=O)[O-])cc1C	inconclusive [inhibitor, partial curve]
COC(=O)C(C)N(C(=O)c1ccc(Cl)cc1)c1c(C)cccc1C (stereo not drawn)	inactive
CCCn1c(=O)c(C(=O)Nc2ccccc2)c(O)c2ccccc21	inconclusive [inhibitor, partial curve]

SMILES	Potency
Cc1cc2ncn(C(=O)c3ccc4c(c3)OCO4)c2cc1C	inconclusive [inhibitor, partial curve]
SC(COCc1ccccc1)CN1CCN(Cc2ccc3c(c2)OCO3)CC1 (stereo not drawn)	inactive
Cc1noc(/C=C/c2ccco2)c1S(=O)(=O)N1CCC(C(=O)N(C)Cc2ccccc2)CC1	inconclusive [inhibitor, single point]
CCOC(=O)C1CCN(C(=O)CCCN2C(=O)c3ccccc3C2=O)CC1	inconclusive [inhibitor, single point]
Cc1nc2sccn2c1P(c1c(C)nc2sccn12)c1c(C)nc2sccn12	inactive
Cc1ccc2cccc(NC(=S)NC(=O)c3ccn(C)n3)c2n1	inactive
Cc1cccc2c(N=Nc3ccc(S(=O)(=O)Nc4ccc(Cl)cc4)cc3[N+](=O)[O-])c(O)[nH]c12	inactive
CCN(CC)c1nc2cc(OC)ccc2cc1C#N	inconclusive [inhibitor, single point]
O=[N+]([O-])c1ccc(/C=[N+](\[O-])CCO)o1	inactive
O=C(CN1CCOCCOCCOCCOCC1)Nc1ccccc1	inconclusive [inhibitor, single point]
CCC1=C/C(=C/c2sc3ccccc3[n+]2CC)CC(C)(C)C1	inconclusive [inhibitor, partial curve]
CNC(=S)NC(CC(=O)OC)c1ccc2c(c1)OCO2 (stereo not drawn)	inactive
COc1ccc2c(=O)c3c(=O)n(Cc4ccco4)c(-c4ccco4)nc3oc2c1	inconclusive [inhibitor, single point]
CCn1c(NC(=O)C2CCCCC2)nc2ccccc21	inconclusive [inhibitor, single point]
Cc1cc(C(=O)N2CCc3ccccc32)c2cc(F)ccc2n1	inconclusive [inhibitor, single point]
N#CCCN(C(=S)NC(=O)c1ccco1)c1ccccc1F	active: 7.94 µM
Cc1ccc(S(=O)(=O)/N=C(\Sc2ccccc2)c2ccccc2)cc1	inconclusive [inhibitor, single point]
COc1ccc(/C(O)=C/C(=O)C(=O)NNC(=O)C(O)(c2ccccc2)c2ccccc2)cc1	inconclusive [inhibitor, single point]
CCc1ccc(N(C(=O)c2csnn2)C(C(=O)NC(C)(C)C)c2ccncc2)cc1 (stereo not drawn)	inconclusive [inhibitor, partial curve]
O=c1c2ccccc2nc2n1CCCS2	inconclusive [inhibitor, single point]
Cc1cc(C)c2c(N)c(C(=O)NCc3ccco3)sc2n1	inconclusive [inhibitor, single point]
CCCOc1ccc(NC(=O)c2c(-c3ccccc3)noc2C)cc1	inactive
O=C1CSC(=NC2CCCCC2)N1	active: 7.94 µM
N#CCSC1=Nc2ccccc2C2=NC(CCC(=O)N3CCN(c4ccccc4)CC3)C(=O)N12 (stereo not drawn)	inconclusive [inhibitor, single point]
COc1cc(/C=N/NC(=O)CSc2cc(C)c(Br)cc2C)ccc1O	inactive

SMILES	Potency
CCc1ccc(C2=C/C(=C/c3cccnc3)C(=O)O2)cc1	inactive
CC(C)(c1ccccc1)c1ccc(OCC(O)CNC2CCN(Cc3ccccc3)CC2)cc1 (stereo not drawn)	inconclusive [inhibitor, full curve]
N/C(=N\OC(=O)c1ccc(Br)o1)c1ccccn1	inactive
CN(C(Cc1ccc(OS(=O)(=O)c2cccc3cnccc23)cc1)C(=O)N1CCN(c2ccccc2)CC1)S(=O)(=O)c1cccc2cnccc12 (stereo not drawn)	active: 14.1 µM
CN1CCC(N(C)CC(=O)Nc2ccccc2N2CCOCC2)CC1	inconclusive [inhibitor, single point]
CC(=O)c1ccc(OCC(=O)NC2CCS(=O)(=O)C2)cc1 (stereo not drawn)	inconclusive [inhibitor, single point]
Cc1ccc(C2CC(c3ccccc3)=NN2c2ccccc2)o1 (stereo not drawn)	inconclusive [inhibitor, partial curve]
Cc1cccn2cc(CNC(=O)c3ccc(Br)o3)nc12	inactive
Cc1onc(-c2ccccc2)c1C(=O)n1nnc2ccccc21	inconclusive [inhibitor, single point]
CC(=O)C1=C(O)C(=O)N(CCN2CCOCC2)C1c1ccccc1 (stereo not drawn)	active: 25.1 µM
COc1cccc(OC2OC3COC(C)(C)OC3C(O)C2NC(C)=O)c1 (stereo not drawn)	inactive
Cc1ccc2c(c1)c1cccc3c1n2CCN3CCC(N)=O	inconclusive [inhibitor, partial curve]
Cc1cnc(CNc2ccnc(-c3cccc(C#N)c3)n2)cn1	inconclusive [inhibitor, single point]
Cc1nc2c3ccccc3nc(SCC(=O)c3ccc(Cl)cc3)n2n1	inactive
C#CC[N+]1(CC#Cc2ccccc2)CCOCC1	inactive
COC(=O)Cn1c(=NC(=O)c2nc3ccccc3s2)sc2cc(S(C)(=O)=O)ccc21	inconclusive [inhibitor, partial curve]
CN(C(=O)c1ccc(=O)[nH]c1)C1(C(=O)NC2CCCCC2)CCCCC1	inconclusive [inhibitor, single point]
Cc1ccc(-c2nc(CS(=O)CC(=O)NCc3ccccc3)c(C)o2)cc1 (stereo not drawn)	inactive
CCn1c(=O)cc(SCC(=O)NCC2CCCO2)c2ccccc21 (stereo not drawn)	inconclusive [inhibitor, single point]
COC(OC)c1ccc(C#N)c(SCc2ccc(C)cc2)n1	inconclusive [inhibitor, single point]
Fc1ccccc1Cc1noc(CN(Cc2ccccn2)CC2CCCO2)n1 (stereo not drawn)	inconclusive [inhibitor, single point]
O=C(NC1CCCC1)C(c1ccc(N2CCOCC2)cc1)N(Cc1ccccc1)C(=O)c1ccco1 (stereo not drawn)	inconclusive [inhibitor, single point]
COc1cc(/C=C(/C(=O)c2cccs2)c2nc3ccccc3[nH]2)ccc1O	inconclusive [inhibitor, single point]
